# According to PubChem BioAssay AID720542 (National Center for Advancing Translational Sciences (NCATS), 2013):
# Screen size: about 360,000 compounds; about 740 (0.21%) were called active. This list was built around the results that the source calls inconclusive (neither active nor inactive); the mix of calls is not that of the screen. Calls come from the whole dose curve; as a rule, active = well fitted inhibition curve with a large enough effect; inconclusive = small, poorly fitted or top-dose-only effect; inactive = no such curve, though single readings can be large or run the other way. Potencies of inconclusive entries are left out as doubtful fits.
# Test system: Plasmodium falciparum AMA1 (3D7) - RON2 peptide interaction
# Test: qHTS for Inhibitors of AMA1-RON; Towards Development of Antimalarial Drug Lead: Primary Screen; note: nearly all actives have a fitted effect of over 45% in size;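 for activity change, negative = inhibition: 0% = vehicle wells and -100% = peptide control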
# Details: AlphaScreen AMA1-biotinylated RON2 peptide binding; activity change, negative = inhibition: at 58.2 µM (top of the series) unless noted
# Procedure, shortened: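 AMA1 (3D7) with his tag at 25 nM final met compounds first, then biotinylated RON2 peptide at 25 nM; detection used donor plus acceptor beads, 10 µg/mL apiece, read by AlphaScreen after 30 min at room temperature.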
# Potency is the fitted concentration of half-maximal effect; tags give direction and shape of the fitted curve.
SMILES,Potency,"activity change, negative = inhibition"
Cc1ccc2nc(COc3ccc(Cl)cc3)cc(=O)n2c1,inactive,–
O=C(O)c1cccc(-n2cccc2/C=C2/NC(=O)N(c3ccc(Cl)cc3)C2=O)c1,"inconclusive [inhibitor, partial curve]",–
COc1ccccc1CN(C)C(=O)c1cc(-c2cccs2)nc2ccccc12,inactive,–
CCOc1ccc2nc(NC(=O)CN3CCN(c4ccccn4)CC3)sc2c1,inactive,–
COc1ccc(NC(=O)C(C)N(C)Cc2ccc3ccccc3c2)cc1 (stereo not given),"inconclusive [inhibitor, partial curve]",–
CN(C)CCCN(C(=O)c1ccc2c(c1)CCCC2)c1nc2ccc(Cl)cc2s1,"inconclusive [inhibitor, partial curve]",–
COc1ccc(C=CC(=O)c2ccc(OC)c(OC)c2O)cc1OC,"inconclusive [inhibitor, partial curve]",–
COCCCNC(=S)N1CCN(Cc2ccc3c(c2)OCO3)CC1,"inconclusive [inhibitor, single point]",–
N#CC1=C(N)Oc2c(c(=O)oc3ccccc23)C1c1ccc([N+](=O)[O-])o1 (stereo not given),"inconclusive [inhibitor, partial curve]",–
COc1cc(CNCCO)ccc1OCC(=O)Nc1ccc(Br)cc1,inactive,–
CCCN(CC(=O)Nc1ccccc1C)C(=O)CCN1C(=O)c2cccc([N+](=O)[O-])c2C1=O,"inconclusive [inhibitor, single point]",–
COc1ccc(CCNC(=O)/C(C#N)=C/c2cccc(OCc3ccccc3)c2)cc1OC,"inconclusive [inhibitor, partial curve]",–
CCOc1cccc(CN2CCC(n3nccc3NC(=O)c3ccc4c(c3)OCO4)CC2)c1,inactive,–
Cc1cc(C)n(-c2nnc(C)c(=O)[nH]2)n1,"inconclusive [inhibitor, single point]",–
NC(=O)C1CCN(C(=O)CC(c2ccccc2)c2ccccc2)CC1,inactive,–
CCOc1ccc(C(=O)NC(=S)NC2CCCC2)cc1[N+](=O)[O-],inactive,–
Nc1ccc(N2CCN(C(=O)c3cccs3)CC2)cc1,"inconclusive [inhibitor, partial curve]",–
S=C(c1cccs1)N1CCN(c2ccccc2)CC1,"inconclusive [inhibitor, partial curve]",–
CC(=O)c1ccc(OC2(C)CCN(Cc3csc4ccccc34)C2)cc1 (stereo not given),"inconclusive [inhibitor, single point]",–
O=C(O)c1cscc1-c1cccc2ccccc12,inactive,–
NCCc1c(-c2ccccc2)n(-c2ccccc2)c2ccccc12,"inconclusive [inhibitor, partial curve]",–
Cc1nnc2c3ccccc3c(-c3ccc(O)cc3)nn12,inactive,–
CN(Cc1cccc(Cl)c1Cl)C(=O)c1ccccc1SCC(=O)N1CCCC1,inactive,–
Cc1sc2ncnc(N3CCN(S(=O)(=O)c4ccc(C(C)(C)C)cc4)CC3)c2c1C,inactive,–
CN(CC(=O)Nc1ccc(F)cc1)C(=O)c1cccc(S(=O)(=O)N2CCN(c3ccccc3)CC2)c1,inactive,–

SMILES,Potency,"activity change, negative = inhibition"
COc1cc(OC)c(OC)cc1CNCc1ccco1,"inconclusive [inhibitor, single point]",–
CC(=O)NC(c1cccs1)c1cc([N+](=O)[O-])c2cccnc2c1O (stereo not given),inactive,–
CSC(=S)N/N=C(\C)c1ccc(Br)cc1,inactive,–
C[C@@H]1NCCc2cc(O)c(O)cc21,"inconclusive [inhibitor, full curve, poor fit]",–
COc1ccc(C(=O)NCC(=O)N/N=C/C(C)=C/c2ccco2)cc1OC,–,inactive: 6.93% [at 11.6 µM]
CN(C)CCOc1ccc(-c2c(-c3ccccc3)sc3ccccc23)cc1,"inconclusive [inhibitor, partial curve]",–
CCOc1ccc(C2=Nn3c(nnc3-c3ccccn3)SC2)cc1,"inconclusive [inhibitor, partial curve]",–
COCCCNC(=O)CC1C[C@H](C(=O)N2CCCCC2)[C@@]2(C)c3[nH]c4ccccc4c3CCN2C1=O (stereo not given in full),inactive,–
CN=c1sc2ccccc2n1CC(O)COCc1ccco1 (stereo not given),"inconclusive [inhibitor, single point]",–
Cc1ccc(-c2nnc(N3CC(C)OC(C)C3)c3ccccc23)cc1 (stereo not given),inactive,–
O=Cc1cc(Cl)ccc1OCCN1CCC(Cc2ccccc2)CC1,"inconclusive [inhibitor, partial curve]",–
O=C(c1[nH]c(C(F)(F)F)nc1-c1ccccc1)N1CCOCC1,inactive,–
CNC(=S)N1N=C(c2ccc(OC)cc2)CC1c1ccc(N(C)C)cc1 (stereo not given),"inconclusive [inhibitor, single point]",–
CSc1ccc(OC2(C)CCN(Cc3ccc4c(c3)OCCO4)C2)cc1 (stereo not given),"inconclusive [inhibitor, single point]",–
CCN1/C(=C\C=C\C2=[N+](CC)c3ccccc3C2(C)C)C(C)(C)c2ccccc21,active: 14.1 µM,–
Cc1csc(NC(=O)CN2CCCCCC2)n1,"inconclusive [inhibitor, single point]",–
C=CCn1c(=O)c(C(=O)Nc2ccccc2C(=O)OCC)c(O)c2ccccc21,inactive,–
COc1ccc(N2CCN(C(=O)c3ccccc3)CC2)c([N+](=O)[O-])c1,"inconclusive [inhibitor, partial curve, poor fit]",–
Cc1cccc(C)c1-n1c(C)cc(/C=C2\C(=O)NN(c3ccccc3)C2=O)c1C,"inconclusive [inhibitor, partial curve]",–
O=C(/C=C/c1cc2ccccc2o1)c1ccccc1O,"inconclusive [inhibitor, partial curve]",–
Cc1ccc2c(CN3CCCCC3C)cc(=O)oc2c1C (stereo not given),inactive,–
O=C(NCc1ccco1)C(C(=O)c1ccc(F)cc1)n1ccccc1=O (stereo not given),–,inconclusive: -13% [inhibitor]
CC(C)CN(C(=O)COC(=O)c1ccccc1SCC(=O)N1CCCC1)C1CCS(=O)(=O)C1 (stereo not given),active: 10 µM,–
CNCCc1c[nH]c2ccc(O)cc12,"inconclusive [inhibitor, single point]",–
O=C(CCCN1CCC(NC(=O)c2ccccc2)CC1)c1ccc(Cl)cc1,inactive,–

SMILES,Potency,"activity change, negative = inhibition"
O=C(NCCN1CCOCC1)c1ccc2c(c1)N(Cc1ccccc1)CCS2,"inconclusive [inhibitor, partial curve, poor fit]",–
O=C1C=C(N2CCCCC2)C2(CCCCC2)O1,inactive,–
COC(=O)c1cc(O)c(O)c(O)c1,"inconclusive [inhibitor, full curve]",–
COc1ccc(OC)c(NC(=O)C(C#N)=Cc2ccco2)c1,"inconclusive [inhibitor, single point]",–
CCOc1ccc(CCNC(=O)CSc2cc(=O)n(C)c3ccc(Cl)cc23)cc1OCC,"inconclusive [inhibitor, partial curve]",–
CCN1C(=O)/C(=C/c2ccc(C)o2)N(C)C1=S,"inconclusive [inhibitor, single point]",–
c1ccc(C[n+]2csc3ccccc32)cc1,"inconclusive [inhibitor, single point]",–
CCc1cc[n+](/C(C(=S)Nc2cccc(C)c2)=C(/[O-])c2ccc(C)c([N+](=O)[O-])c2)cc1,"inconclusive [inhibitor, partial curve]",–
O=C1C(N2CCOCC2)=Cc2cccc3cccc1c23,"inconclusive [inhibitor, single point]",–
CCc1cccc(NC(=O)CN(c2ccc(C)cc2)S(=O)(=O)c2c(C)noc2C)c1,inactive,–
O=C(Nc1cccc(C(F)(F)F)c1)Nc1ccc(N2CCCC2)c(S(=O)(=O)Nc2ccccc2Cl)c1,inactive,–
O=C1NCCCc2c1oc1cc(Br)c(O)c(Br)c21,"inconclusive [inhibitor, partial curve]",–
COc1ccc(-c2cc(C(=O)N3CCN(c4ccccn4)CC3)c3ccccc3n2)cc1,inactive,–
Cc1ccn2c(Cc3ccccc3)c(-c3ccc(F)cc3)nc2c1,"inconclusive [inhibitor, single point]",–
COc1cccc(/C=N/Nc2cc(Cl)nc(C)n2)c1O,inactive,–
Cc1c(/C=N/NC(=O)c2ccccc2O)c2ccccn2c1C(=O)c1ccc(F)cc1,inactive,–
Cc1nc2ccccn2c1C(=O)N/N=C/c1ccc(CNC(=O)C(=O)Nc2ccccc2)o1,inactive,–
Cc1ccc(-n2nc(C(=O)O)c(O)cc2=O)cc1,"inconclusive [inhibitor, single point]",–
CC(=O)c1ccc(N=Nc2ccc(C)cc2)cc1,"inconclusive [inhibitor, partial curve]",–
COc1ccc(-c2ccc3n2Cc2cnnn2-c2ccccc2-3)cc1,"inconclusive [inhibitor, partial curve]",–
CCOC(=O)N1CCC(NC(=O)c2cc(C(=O)NCc3cccc(Cl)c3)ccc2CO)CC1,inactive,–
COc1ccc(NCc2ccc([N+](=O)[O-])s2)c(OC)c1,"inconclusive [inhibitor, single point]",–
CCCc1cc(=O)oc2cc(C)cc(OC(C)C(=O)NCC(O)c3ccccc3)c12 (stereo not given),inactive,–
Cc1ccc(S(=O)(=O)c2cc(Nc3ccccc3)ccc2O)cc1,"inconclusive [inhibitor, single point]",–
CC1CN(CCCCSc2ccc(Cl)cc2)CC(C)O1 (stereo not given),"inconclusive [inhibitor, single point]",–
